# Where “and” joins values, the source holds several entries; their conditions need not be identical. Equal values may be shown once. Screen size: about 410,000 compounds; about 5,000 (1.2%) were called active. The inconclusive results got no clear call from the source; some entries with a clear call stand among them for comparison. The call rests on the fitted dose curve; in most records, active means well fitted inhibition curve with a large enough effect; inconclusive means small, poorly fitted or top-dose-only effect; inactive means no such curve, though single readings can be large or run the other way. A potency beside an inconclusive call is a rough fit, not a confirmed value.
# Experiment: qHTS for Inhibitors of TGF-b; further: nearly all actives have a fitted effect of over 65% in size
# Conditions: HepG2 CAGA-GFP TGF-b/SMAD3 reporter, GFP fluorescence, 18 h, TGF-beta stimulated, 500 pg/mL final; series mostly up to 46.1 µM; activity, negative = inhibition: at the top concentration
# Procedure, shortened: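 Inhibition was scored as loss of TGF-beta-induced (500 pg/mL final, 18 hours, 37 degrees C) GFP in HEPG2 cells carrying a CAGA-GFP reporter, in DMEM with 1% FBS. Well GFP was summed per cell; Activity was normalised to unstimulated and stimulated DMSO wells, then concentration-response fitting.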
# On the % scale 0 is the no-effect control and ±100 the full control effect; potency means the concentration at half of the fitted maximal effect; tags describe the fitted curve by direction and shape.
Structure (SMILES),Potency,"activity, negative = inhibition"
COC(=O)c1ccc(Nc2nc(-c3ccccc3Cl)nc3ccccc23)cc1,"inconclusive: 12.6 µM [inhibitor, partial curve, poor fit]",
Clc1cccc(-c2nc3ccccn3c2Nc2ccc3c(c2)OCCO3)c1,"inconclusive: 20 µM [inhibitor, single point]",
O=C(CCCSc1nc2ccccc2[nH]1)NC(c1ccccc1)c1ccccc1,,inactive: -6.74%
CC1(CCC(=O)O)C(=O)CCC2C1CCC1(C)C2CCC1(C)O (stereo not given),"inconclusive: 1.58 µM [inhibitor, partial curve, poor fit]",
COC(=O)/C=C1\N/C(=N\c2nc(C)cc(C)n2)N(c2ccccc2)C1=O,,inactive: 0.966%
CC1(C(=O)NS(=O)(=O)c2cccc(F)c2)CCN1C(=O)c1ccco1 (stereo not given),,inactive: 10.5%
CSc1cc(-c2ccco2)oc1C(=O)c1ccco1,"inconclusive: 35.5 µM [inhibitor, single point]",
CN(Cc1ccccc1)C(=O)c1ccc([N+](=O)[O-])o1,"inconclusive: 22.4 µM [inhibitor, single point]",
COc1cc(CN(C2CC2)S(=O)(=O)c2ccccc2Br)cc(OC)c1,"inconclusive: 17.8 µM [inhibitor, single point]",
Cc1ccc(NS(=O)(=O)c2ccc(OCC(=O)NCc3ccco3)cc2)cc1,,inactive: 7.44%
COc1ccc(NC(=O)C2(C)CCN2C(=O)Cc2ccc(Cl)cc2Cl)cc1OC (stereo not given),"inconclusive: 11.2 µM [inhibitor, partial curve, poor fit]",
Cc1ccc(Cn2c(CO)cnc2SCC(=O)NCc2ccccc2Cl)cc1,"inconclusive: 22.4 µM [inhibitor, single point]",
COc1ccc(N2CCN(C3(c4ccccc4)C(=O)c4ccccc4C3=O)CC2)cc1,"inconclusive: 5.01 µM [inhibitor, partial curve, poor fit]",
Cc1ccc(Cl)cc1N(C)C(=O)c1cc2c(Cl)nc3ccccc3c2s1,"inconclusive: 4.47 µM [inhibitor, single point]",
COC(=O)C1=C(C(=O)OC)[C@]2([C@H]3CCCCN[C@@H](Cc4ccccc4)C(=O)N3Cc3ccccc3)C=C[C@H]1O2,"inconclusive: 15.8 µM [inhibitor, partial curve, poor fit]",
CC(C)CNC(=O)C1(C)CCCN1C(=O)c1cccnc1Oc1ccccc1 (stereo not given),,inactive: 8.86%
NS(=O)(=O)c1ccc(-c2ccc(/C=C3\NC(=S)NC3=O)o2)cc1,"inconclusive: 3.55 µM [inhibitor, partial curve, poor fit]",
OC(c1ccc(Cl)c(Cl)c1)c1ncc(-c2ccccc2C(F)(F)F)[nH]1 (stereo not given),"inconclusive: 25.1 µM [inhibitor, single point]",
CC1CCCCN1C(=O)CSc1nnc(-c2cccnc2)n1C1CCCCC1 (stereo not given),,inactive: 0.575%
CC(C)=CCc1c(O)ccc(C2COc3c(CC=C(C)C)c(O)cc(O)c3C2=O)c1O (stereo not given),"inconclusive: 35.5 µM [inhibitor, single point]",
CCc1nc2ccc(C(=O)N3CCN(c4cc(C)ccc4C)CC3)cc2nc1CC,"inconclusive: 35.5 µM [inhibitor, single point] and inconclusive: 31.6 µM [inhibitor, single point]",
CCOc1ccc(CCNC(=O)c2cc3sccc3n2CC)cc1OCC,inactive,

Structure (SMILES),Potency,"activity, negative = inhibition"
Cc1ccccc1N1CC(=O)Nc2c(oc3nc(-c4ccccc4)cc(C)c23)C1=O,"inconclusive: 35.5 µM [inhibitor, single point]",
Cc1onc(-c2ccccc2)c1CNC(=O)Nc1cccc(Cl)c1,"inconclusive: 35.5 µM [inhibitor, single point]",
CN(c1ccc(C(=O)NCCSC(C)(C)C)cc1)S(=O)(=O)c1ccccc1,,inactive: 0.472%
CC1=C(C#N)C(c2cccnc2)C2=C(CC(c3ccc(Cl)cc3)CC2=O)N1 (stereo not given),,inactive: 2.34%
Cc1ccc(S(=O)(=O)c2cc3ccc(O)cc3oc2=O)cc1C,"inconclusive: 35.5 µM [inhibitor, single point]",
COc1ccccc1N1CCN(CCCNC(=O)c2nnc(Cc3ccc(F)cc3Cl)o2)CC1,"inconclusive: 15.8 µM [inhibitor, single point]",
Cc1ccc(N(C)S(=O)(=O)c2ccc(-c3coc(C)n3)cc2)cc1,,inactive: 17.6%
O=C(CSc1nnc(-c2c[nH]c3ccccc23)o1)N(Cc1ccccc1)c1ccc(F)cc1,"inconclusive: 15.8 µM [inhibitor, single point]",
COc1cccc(/C=C2\SC(=S)N(CCC(=O)NCCc3ccc(O)cc3)C2=O)c1,"inconclusive: 17.8 µM [inhibitor, partial curve, poor fit]",
CC(C)(C)c1nc(-c2ccccc2)nc2c1OCCC2,"inconclusive: 35.5 µM [inhibitor, single point]",
Cc1cccc(-n2ncc(Cl)c(Cl)c2=O)c1,"inconclusive: 35.5 µM [inhibitor, single point]",
CCN(CCO)c1nc(SC)nc2c1sc1nc(-c3ccco3)c3c(c12)CCC3,"inconclusive: 7.08 µM [inhibitor, partial curve]",
CC1=C(C(=O)N(C)C)CC(CC(=O)NCCCCc2ccccc2)C(=O)N1CCC1=CCCCC1 (stereo not given),"inconclusive: 14.1 µM [inhibitor, single point]",
Cc1cc(C)c(C#N)c(Nc2ccc(F)cc2)n1,,inactive: 10.2%
CN(C)CCN(C(=O)c1ccc2c(c1)OCCO2)c1nc2cc3c(cc2s1)OCO3,,inactive: 0.231%
N#Cc1cnc(NN)nc1,,inactive: -21.5%
O=C(NCCCN1CCN(Cc2ccccc2)CC1)C1CCN(c2nnc(-n3cccc3)s2)CC1,,inactive: -13.5%
O=[N+]([O-])c1cc([N+](=O)[O-])c2c(=Nc3ccccc3)n(-c3ccccc3)n(O)c2c1,"inconclusive: 3.55 µM [inhibitor, partial curve, poor fit]",
Cc1ccc(-c2nc(N3CCN(S(=O)(=O)c4ccc(F)cc4)CC3)c3ccc(Cl)cc3n2)cc1,,inactive: 25%
O=C(CCl)N(O)c1ccc(C=Cc2ccccc2)cc1,"inconclusive: 17.8 µM [inhibitor, single point]",
COc1ccc(OC)c(-c2csc(NC(=O)CSc3ccc([N+](=O)[O-])cc3)n2)c1,"inconclusive: 17.8 µM [inhibitor, single point]",
Cc1ccc(OCC(=O)N/N=C/c2cc([N+](=O)[O-])ccc2N2CCCCC2)cc1,"inconclusive: 3.98 µM [inhibitor, single point]",

Structure (SMILES),Potency,"activity, negative = inhibition"
COc1cc(Br)c(/C=C/c2ccc3cccc(O)c3n2)cc1OC,"inconclusive: 10 µM [inhibitor, partial curve, poor fit]",
CC(C)Cc1ccc(S(=O)(=O)NCc2nc3cccnc3n2Cc2ccccc2)cc1,"inconclusive: 17.8 µM [inhibitor, single point]",
COc1cccc(NC(=S)NC(Cc2ccccc2)c2ccccc2)c1 (stereo not given),active: 22.4 µM,
CCCCN(C)CCNC(=O)c1ccc(Cn2c(=S)[nH]c3ccc(Br)cc3c2=O)cc1,active: 11.2 µM,
COCCCNC(=O)c1ccc2c(=O)n(Cc3ccccc3OC)c(=S)[nH]c2c1,,inactive: -9.54%
CCOC(=O)c1cc(-c2ccccc2)nc2c1c(C)nn2-c1ccccn1,"inconclusive: 35.5 µM [inhibitor, single point]",
CC(C)C[C@H]1CNC(=S)N1C[C@H]1CCCN1C[C@H](Cc1ccc(O)cc1)N1C[C@H](Cc2ccc(O)cc2)N(CC2CCCCCC2)C1=S,"inconclusive: 10 µM [inhibitor, partial curve, poor fit]",
COc1ccc(S(=O)(=O)N(C)CC(=O)NC2CCCC2)cc1OC,"inconclusive: 35.5 µM [inhibitor, single point]",
CC(=O)O[C@@H]1C[C@H]2C(C)(C)C(=O)C=C[C@]2(C)[C@H]2CC[C@@]3(C)[C@H](c4ccoc4)OC(=O)[C@H]4O[C@]43[C@@]21C,"inconclusive: 0.251 µM [inhibitor, full curve, poor fit]",
CC(C)NC(=O)Cc1ccc(Br)cc1,,inactive: 6.31%
Cc1ccc(-n2nc3c(N4CCC(C(=O)NC5CCCCC5)CC4)nnc(C)c3c2C)cc1,"inconclusive: 2.51 µM [inhibitor, full curve]",
CN(O)/C=N/C(=S)Nc1ccc(Cl)cc1Cl,"inconclusive: 35.5 µM [inhibitor, single point]",
Cc1cc2oc(C(=O)Nc3ccc(S(=O)(=O)N4CCC(C)CC4)cc3)cc(=O)c2cc1C,,inactive: -0.006%
COC(=O)c1cccc(NS(=O)(=O)c2ccc(OC)c(OC)c2)c1C,"inconclusive: 22.4 µM [inhibitor, single point]",
CCOc1ccc(-n2cc(-c3ccccc3)c3c(NC4CCCC4)ncnc32)cc1,"inconclusive: 22.4 µM [inhibitor, single point]",
CC1CCN(C(=O)c2ccc(CNS(=O)(=O)c3ccc(C(C)(C)C)cc3)cc2)CC1,"inconclusive: 35.5 µM [inhibitor, single point]",
CCc1nc2ccccc2c(NC(=O)CN2CCC(C)CC2)c1C,,inactive: 7.36%
NC(=O)c1ccc(NC(=O)CCCN2C(=O)c3ccccc3C2=O)cc1,"inconclusive: 35.5 µM [inhibitor, single point]",
Cc1ccc(S(=O)(=O)C=CS(=O)(=O)c2ccc(C)cc2)cc1,"inconclusive: 10 µM [inhibitor, partial curve, poor fit]",
CCC(=O)Nc1c(S(=O)(=O)c2ccc(C)cc2)c2nc3ccccc3nc2n1C(C)c1ccccc1 (stereo not given),"inconclusive: 14.1 µM [inhibitor, partial curve, poor fit]",
CC1=CC(C)(C)N2C(=O)C3(C(C#N)=C(N)Oc4cc(O)ccc43)c3cccc1c32 (stereo not given),"inconclusive: 35.5 µM [inhibitor, single point]",
